The record followed here is article PMC4336329 (PLoS ONE, 2015).

The whole screen tested about 310,000 compounds, of which about 2,200 (0.71%) showed an effect of 50% or more. The effect is printed as a negative number. Some of the results follow.

The assay deals with human ether-à-go-go-related gene (hERG) potassium channel (human, UniProt Q12809). As to the kind of experiment: primary screen, population patch clamp on CHO cells stably expressing hERG.
human ether-à-go-go-related gene (hERG) potassium channel, sequence (Q12809 whole entry, looked up): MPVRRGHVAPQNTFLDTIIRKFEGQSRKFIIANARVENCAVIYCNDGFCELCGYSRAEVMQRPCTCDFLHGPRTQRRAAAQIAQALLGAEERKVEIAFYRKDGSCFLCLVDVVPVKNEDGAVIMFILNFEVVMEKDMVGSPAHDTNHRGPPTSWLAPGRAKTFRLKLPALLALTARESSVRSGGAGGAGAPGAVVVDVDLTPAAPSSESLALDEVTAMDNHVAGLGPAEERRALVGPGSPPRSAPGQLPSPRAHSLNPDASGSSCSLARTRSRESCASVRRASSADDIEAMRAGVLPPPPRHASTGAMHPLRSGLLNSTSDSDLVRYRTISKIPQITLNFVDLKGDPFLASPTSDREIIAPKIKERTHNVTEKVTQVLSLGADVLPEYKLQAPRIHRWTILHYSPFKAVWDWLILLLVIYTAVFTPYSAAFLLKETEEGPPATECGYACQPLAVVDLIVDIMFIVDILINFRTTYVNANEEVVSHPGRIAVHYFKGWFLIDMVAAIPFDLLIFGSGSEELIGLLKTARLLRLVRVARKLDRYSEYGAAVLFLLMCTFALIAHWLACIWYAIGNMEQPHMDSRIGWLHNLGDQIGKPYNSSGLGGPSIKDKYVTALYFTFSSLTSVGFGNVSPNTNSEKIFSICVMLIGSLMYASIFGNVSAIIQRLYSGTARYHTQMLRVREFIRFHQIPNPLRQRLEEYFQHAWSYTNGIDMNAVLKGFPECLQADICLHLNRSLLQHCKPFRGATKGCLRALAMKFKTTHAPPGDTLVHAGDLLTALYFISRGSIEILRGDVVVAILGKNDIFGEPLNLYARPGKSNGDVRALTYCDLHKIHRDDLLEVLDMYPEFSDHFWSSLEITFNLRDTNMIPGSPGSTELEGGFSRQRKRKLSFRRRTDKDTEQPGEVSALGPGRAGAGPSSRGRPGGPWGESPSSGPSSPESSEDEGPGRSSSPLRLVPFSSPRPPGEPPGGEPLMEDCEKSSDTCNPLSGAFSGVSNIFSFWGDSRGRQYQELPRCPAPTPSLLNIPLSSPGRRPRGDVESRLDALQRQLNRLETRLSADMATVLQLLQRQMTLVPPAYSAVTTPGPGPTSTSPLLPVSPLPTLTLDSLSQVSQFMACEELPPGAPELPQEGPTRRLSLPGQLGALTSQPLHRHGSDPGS
Regarding `Cc1ccc(N=C(NO)c2nonc2N)c(C)c1`, the “hERG current change (%, negative = inhibition) at 1uM” value was determined as 10.4%.

Turning to `CCc1[nH]c(=O)[nH]c1C(C)S(=O)(=O)c1ccc(C)cc1` (stereo not shown), the “hERG current change (%, negative = inhibition) at 1uM” value is listed as 11.5%.

Consider `CCOC(=O)C1C(=O)CC(C)(O)C(C(=O)OCC)C1c1cccs1` (stereo not shown), for which the “hERG current change (%, negative = inhibition) at 1uM” value is listed as 21.2%.

On to `CCCCC1=CC2=CC(=O)C(C)(OC(=O)c3cnc4ccccc4n3)C(=O)C2=CO1` (stereo not shown), for which the “hERG current change (%, negative = inhibition) at 1uM” value turned out to be 17.4%.

On to `CC(C)c1ccccc1-n1c(SCC(=O)N2CCc3ccccc3C2)nc2ccccc2c1=O`, for which the “hERG current change (%, negative = inhibition) at 1uM” value was 10.7%.

Turning to `COc1ccccc1C(=O)Nc1c(C)n(C)n(-c2ccccc2)c1=O`, the “hERG current change (%, negative = inhibition) at 1uM” value turned out to be 13%.

As for `CC(=O)NC(c1ccc2ccccc2c1)c1ccc2cccnc2c1O` (stereo not shown), the “hERG current change (%, negative = inhibition) at 1uM” value was found to be 13.7%.

As for `O=C1CC2(CCCC2)Oc2ccc(Cl)cc21`, the “hERG current change (%, negative = inhibition) at 1uM” value is 6.48%.

For `NC(=O)c1cc(Br)cc2c3c([nH]c12)CCCC3`, the “hERG current change (%, negative = inhibition) at 1uM” value is given as 11.4%.

`c1cc2c(cc1C1=Nn3c(nnc3C3CCCCC3)SC1)OCO2`: the “hERG current change (%, negative = inhibition) at 1uM” value is 10.1%.

Regarding `CC1Cn2c(nnc2C23CC4CC(CC(C4)C2)C3)S1` (stereo not shown), the “hERG current change (%, negative = inhibition) at 1uM” value is given as 7.65%.

For `COc1ccc(CC(C)N2CCN(c3cccc(C(F)(F)F)c3)CC2)cc1OC` (stereo not shown), the “hERG current change (%, negative = inhibition) at 1uM” value is reported as -6.45%.

Take `OC(CN1CCCCC1)CN1CCCCC1`: the “hERG current change (%, negative = inhibition) at 1uM” value is 15.5%.

For `CC(C)=CCN1CCN(Cc2cccc3c2OCO3)CC1CCO` (stereo not shown), the “hERG current change (%, negative = inhibition) at 1uM” value stood at 7.17%.

As to `CC(C)=CC(=O)Nc1nnc(-c2ccc(F)cc2)s1`, the “hERG current change (%, negative = inhibition) at 1uM” value is reported as -0.981%.

As to `CC(C)(C)n1nnnc1C(c1cccs1)N(Cc1ccccc1)Cc1ccco1` (stereo not shown), the “hERG current change (%, negative = inhibition) at 1uM” value was -0.957%.

`O=S(=O)(c1ccc(NC(=S)NCc2ccncc2)cc1)N1CCCCC1`: the “hERG current change (%, negative = inhibition) at 1uM” value worked out at 13%.

Consider `CCCN1CCN(C(=O)Nc2ccc(C(=O)OCC)cc2)CC1`, for which the “hERG current change (%, negative = inhibition) at 1uM” value amounted to 9.5%.

In the case of `COC(=O)c1ccc(C(=O)OC)c(NC(=O)CCS(=O)(=O)Cc2ccccc2)c1`, the “hERG current change (%, negative = inhibition) at 1uM” value is given as 7.09%.

On to `Cc1ccc(Nc2ncc3c(n2)CC(c2ccco2)CC3=O)c(C)c1` (stereo not shown), for which the “hERG current change (%, negative = inhibition) at 1uM” value is on record as -10.1%.

`CC12CN3CCN(CC(C3)/C1=N/NC(N)=O)C2`: the “hERG current change (%, negative = inhibition) at 1uM” value stood at 11.7%.

For the compound `NC(=O)c1ccccc1Nc1nc(NCCO)nc(N2CCCC2)n1`, the “hERG current change (%, negative = inhibition) at 1uM” value is listed as 18.7%.

Take `CCN(Cc1ccccc1)S(=O)(=O)c1ccc(C(=O)N(CCCN(C)C)c2nc3cc(C)cc(C)c3s2)cc1.Cl`: the “hERG current change (%, negative = inhibition) at 1uM” value was 3.79%.

For the compound `C=CCNC(=S)NNC(=O)c1cc(O)ccc1O`, the “hERG current change (%, negative = inhibition) at 1uM” value is 11.7%.

On to `O=C(CC12CC3CC(CC(C3)C1)C2)Nc1c(F)cccc1F`, for which the “hERG current change (%, negative = inhibition) at 1uM” value came out at 15.1%.

Regarding `CCc1ccc2oc(C(=O)Nc3ccc(S(N)(=O)=O)cc3)c(C)c2c1`, the “hERG current change (%, negative = inhibition) at 1uM” value was found to be 17.8%.

With `O=C1C2C(C(=O)N1CC1CCCO1)C1C=CC2C12CC2` (stereo not shown), the “hERG current change (%, negative = inhibition) at 1uM” value was 2.77%.

In the case of `CCc1nnc(NC(=O)CSc2nnc(-c3cccnc3)n2CC)s1`, the “hERG current change (%, negative = inhibition) at 1uM” value is 13.5%.

Regarding `CCOC(=O)N1CCN(S(=O)(=O)c2cccc3nonc23)CC1`, the “hERG current change (%, negative = inhibition) at 1uM” value is on record as -4.31%.

Regarding `Cc1cccc(NC(=O)CC2SC(=NC3CCCCC3)NC2=O)c1` (stereo not shown), the “hERG current change (%, negative = inhibition) at 1uM” value stood at 11.6%.

Take `Cl.OC(COCc1ccccc1)CN1CCCC1` (stereo not shown): the “hERG current change (%, negative = inhibition) at 1uM” value is listed as 1.21%.

On to `CCCc1cc(=O)[nH]c(SCC(=O)NC)n1`, for which the “hERG current change (%, negative = inhibition) at 1uM” value is -0.511%.

`Cl.NCCN1C(=O)S/C(=C\c2ccc3c(c2)OCO3)C1=O`: the “hERG current change (%, negative = inhibition) at 1uM” value was 4.94%.

In the case of `O=C(NC1CCCN(C2Cc3ccccc3C2)C1)c1ccc(F)cc1Cl` (stereo not shown), the “hERG current change (%, negative = inhibition) at 1uM” value was -72.9%.

`CC1CCN(C(=O)CSc2nc3ccccc3c(=O)[nH]2)CC1`: the “hERG current change (%, negative = inhibition) at 1uM” value is recorded as 3.31%.

In the case of `Cc1cccc(NC(=O)CCN2CCN(C)CC2)c1.Cl`, the “hERG current change (%, negative = inhibition) at 1uM” value was determined as 14.1%.

Take `CC(C)(C)c1nc(NCc2ccc3c(c2)OCO3)c2nnn(Cc3ccccc3Cl)c2n1.Cl`: the “hERG current change (%, negative = inhibition) at 1uM” value is on record as 18.3%.

Consider `O=C(NCc1ccc(F)cc1)c1cc2sccc2n1Cc1ccc(F)cc1`, for which the “hERG current change (%, negative = inhibition) at 1uM” value stood at 18.6%.

With `C/C(=N/NC(=O)c1ccc(O)cc1)c1cccc([N+](=O)[O-])c1`, the “hERG current change (%, negative = inhibition) at 1uM” value is 9.78%.

`COC(=O)c1ccc(-c2ccc(/C=N/N3C(=O)C4C5C=CC(CC5)C4C3=O)o2)cc1` (stereo not shown): the “hERG current change (%, negative = inhibition) at 1uM” value was determined as 9.56%.

With `O=C(c1cccc(COc2ccc(Cl)cc2Cl)c1)N1CCN(c2ccccn2)CC1`, the “hERG current change (%, negative = inhibition) at 1uM” value was -4.37%.

As for `CCCCN(C)C(=O)c1c[nH]c2ccc(S(=O)(=O)N3CCOCC3)cc2c1=O`, the “hERG current change (%, negative = inhibition) at 1uM” value amounted to 14.9%.

On to `CC(C)[C@H](NC(=O)c1ccccc1F)C(=O)Nc1ccc2c(c1)OCO2`, for which the “hERG current change (%, negative = inhibition) at 1uM” value was found to be 10.7%.

As for `NC(=O)c1nn(CC(=O)Nc2cccc(S(=O)(=O)N3CCCCCC3)c2)c(=O)c2ccccc12`, the “hERG current change (%, negative = inhibition) at 1uM” value was 0.662%.

Regarding `CC(C)Sc1nc2ccccc2n1CC(=O)O`, the “hERG current change (%, negative = inhibition) at 1uM” value was found to be 5.17%.

Regarding `Cc1ccc(NC(=O)c2cc([N+](=O)[O-])ccc2N2CCCC2)cc1`, the “hERG current change (%, negative = inhibition) at 1uM” value is listed as 6.31%.

Take `Cn1cnnc1SCNC(=O)C(F)(F)F`: the “hERG current change (%, negative = inhibition) at 1uM” value was 11.4%.

Regarding `CCCCNC(=O)C(CC)(ONc1ccccc1C(F)(F)F)c1ccccc1` (stereo not shown), the “hERG current change (%, negative = inhibition) at 1uM” value is recorded as 8.92%.

For the compound `CCOc1ccccc1CN1CCN(Cc2csc(C(C)=O)c2)CC1CCO` (stereo not shown), the “hERG current change (%, negative = inhibition) at 1uM” value is reported as -3.65%.

Regarding `CC(C)[C@@H]1NC(=O)c2cc([N+](=O)[O-])cc(I)c2NCCC[C@@H](C(N)=O)NC(=O)[C@H](CO)NC1=O`, the “hERG current change (%, negative = inhibition) at 1uM” value is 8.46%.

Take `CCn1c(=N)n(CC(=O)c2cccc(OC)c2)c2ccccc21`: the “hERG current change (%, negative = inhibition) at 1uM” value is 5.01%.

`Cc1cc(C)c(NC(=O)Cn2c(=O)n(-c3ccc(CC(=O)NCC4CCCO4)cc3)c(=O)c3ccccc32)c(C)c1` (stereo not shown): the “hERG current change (%, negative = inhibition) at 1uM” value is given as 13%.

For the compound `CCCNC(=O)NC(=O)CN1C(=O)NC(C)(c2ccc(C)cc2)C1=O` (stereo not shown), the “hERG current change (%, negative = inhibition) at 1uM” value came to 5.48%.

In the case of `COc1cc(OC)cc(N2C(=O)CSCC2=O)c1`, the “hERG current change (%, negative = inhibition) at 1uM” value is given as 8.03%.

For the compound `CCCCNC(=O)C(=O)c1ccccc1NC(C)=O`, the “hERG current change (%, negative = inhibition) at 1uM” value was 4.61%.

`COc1ccc(C2CC(c3ccccc3)=NN2c2ccc(/C=N/NC(=O)c3ccncc3)cc2)cc1` (stereo not shown): the “hERG current change (%, negative = inhibition) at 1uM” value amounted to 6.38%.

Consider `CCN(CC)S(=O)(=O)c1cccc(C(=O)NCC2CCCO2)c1` (stereo not shown), for which the “hERG current change (%, negative = inhibition) at 1uM” value was found to be 7.81%.

`O=C(c1ccccc1)N1N=C(c2cccs2)CC1c1ccccc1O` (stereo not shown): the “hERG current change (%, negative = inhibition) at 1uM” value is listed as 12.1%.
